In all, about 370,000 compounds went through this assay and about 150 (0.041%) were called active. This list was built around the results that the source calls inconclusive (neither active nor inactive); the mix of calls is not that of the screen. Calls come from the whole dose curve; as a rule, active = well fitted inhibition curve with a large enough effect; inconclusive = small, poorly fitted or top-dose-only effect; inactive = flat fitted curve, though single readings scatter. Potencies of inconclusive entries are left out as doubtful fits.
Target: Beta-lactamase (Escherichia coli (strain K12)) (UniProt P00811)
Chain of UniProt P00811 (P00811 whole entry, looked up): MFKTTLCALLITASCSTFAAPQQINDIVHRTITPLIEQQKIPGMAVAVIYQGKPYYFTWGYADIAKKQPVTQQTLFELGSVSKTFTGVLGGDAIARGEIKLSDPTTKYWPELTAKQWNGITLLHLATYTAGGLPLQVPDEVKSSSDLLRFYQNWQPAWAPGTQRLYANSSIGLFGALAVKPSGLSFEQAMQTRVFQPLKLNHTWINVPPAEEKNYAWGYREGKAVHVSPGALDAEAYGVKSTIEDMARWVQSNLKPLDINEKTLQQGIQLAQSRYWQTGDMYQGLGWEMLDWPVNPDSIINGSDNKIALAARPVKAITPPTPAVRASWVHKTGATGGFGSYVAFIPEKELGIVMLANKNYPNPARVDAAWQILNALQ
Assay: qHTS Inhibitors of AmpC Beta-Lactamase (assay with detergent); note: nearly all actives have a fitted effect of over 25% in size
Conditions: AmpC hydrolysis of nitrocefin, absorbance 480 nm, 0.01% Triton; series mostly up to 114 µM
In short: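 20 mM phosphate pH 7.0 + 0.01% (detergent screen) or 0.0001% Triton X-100; 5.3 nM AmpC reagent; cpd preinc 15 min RT; nitrocefin (800 uM stock) to start; A480 q20 s × 4 min; Activity was normalised to no-enzyme and no-compound control wells.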
Potency is the fitted concentration of half-maximal effect; tags give direction and shape of the fitted curve.

For COc1ccccc1N1CCN(S(=O)(=O)c2c(C)[nH]c(C)c2C(=O)N2CCCCC2)CC1, which Potency is on record?
The Potency was inconclusive [inhibitor, full curve, poor fit].

For Oc1ccc(Br)cc1CN1CCCCCCC1, which Potency is on record?
The Potency was inconclusive [inhibitor, full curve, poor fit].

CC(=O)c1ccc(-c2ccc(C(=O)N3CCCc4ccccc43)o2)cc1 was tested. Which Potency did it give?
The Potency was inconclusive [inhibitor, full curve, poor fit].

Cc1cc(C)cc(OCC(=O)Nc2cc(NC(=O)COc3cc(C)cc(C)c3)cc(C(=O)O)c2)c1 was tested. Which Potency did it give?
Its Potency is inconclusive [inhibitor, full curve, poor fit].

With Cc1ccc2[nH]c(-c3ccccc3)cc(=O)c2c1 as the compound, how does the Potency read?
The Potency was inconclusive [inhibitor, full curve, poor fit].

For COc1ccc(CNc2oc(/C=C/c3cccc(OC)c3)nc2C#N)cc1, which Potency is on record?
Its Potency is “inactive”.

How did the Potency turn out when O=C(NCc1ccc(F)cc1)C1CCN(c2ncnc3c2nc2n3CCCCC2)CC1 was run?
The Potency was “inactive”.

With COCCCNC(=O)C(=O)NC1CCCCCC1 as the compound, how does the Potency read?
The Potency was inconclusive [inhibitor, full curve].

With NC(=O)CC1C(=O)N(c2ccc(F)cc2)C(=O)N1NC(=O)CCc1ccccc1 (centres undefined) as the compound, how does the Potency read?
The Potency was “inactive”.

Which Potency does the source give for Cc1ccc(CN2CCC(C(=O)NCCC(C)C)CC2)o1 here?
Its Potency is inconclusive [inhibitor, full curve, poor fit].

How did the Potency turn out when CCOC(=O)CSc1nnc(-c2ccoc2C)n1-c1ccc(C)cc1 was run?
Its Potency is inconclusive [inhibitor, full curve, poor fit].

With CCCCc1nnc(NC(=O)CSc2nc(C)cc(=O)[nH]2)s1 as the compound, how does the Potency read?
Its Potency is inconclusive [inhibitor, partial curve, poor fit].

For COc1cc2c(=O)n(CCCN3CCOCC3)c(=S)[nH]c2c(OC)c1OC, which Potency is on record?
The Potency was inconclusive [inhibitor, partial curve, poor fit].

Which Potency does the source give for CC1CCCC(NC(=O)Nc2cccs2)C1C (centres undefined) here?
The Potency was inconclusive [inhibitor, full curve].

Which Potency does the source give for O=C(CCc1nc2ccccc2c(=O)[nH]1)Nc1cccc(S(=O)(=O)N2CCOCC2)c1 here?
Its Potency is inconclusive [inhibitor, partial curve, poor fit].

Cc1cc(C)nc(N/N=C/C=C/c2ccccc2)n1 was tested. Which Potency did it give?
The Potency was “inactive”.

For CCN1CCCC1Cn1cnc2c([nH]c3cccc(Cl)c32)c1=O (centres undefined), which Potency is on record?
The Potency was inconclusive [inhibitor, single point].

O=C1CN(C(=O)CSc2nc(-c3ccccc3)cs2)c2ccccc2N1 was tested. Which Potency did it give?
Its Potency is “inactive”.

COc1ccc(OC)c(NC(=O)CCc2nnc3ccc(NCc4ccco4)nn23)c1 was tested. Which Potency did it give?
The Potency was “inactive”.

How did the Potency turn out when O=C(NCCc1ccccc1)C1CCCN(S(=O)(=O)c2cnc[nH]2)C1 (centres undefined) was run?
Its Potency is inconclusive [inhibitor, full curve].

For COc1ccc(CCNC(=O)c2c(O)c3cccc4c3n(c2=O)CC4)cc1OC, which Potency is on record?
The Potency was inconclusive [inhibitor, full curve, poor fit].

For Cc1ccn(-c2ccc(NC(=O)c3cccs3)cc2)n1, which Potency is on record?
The Potency was “inactive”.

Which Potency does the source give for COC(=O)C1=C(O)CSC1=Nc1ccc(C)cc1 here?
The Potency was inconclusive [inhibitor, partial curve, poor fit].

Cc1ccc(NC(=O)COC(=O)[C@H](C)NC(N)=O)c(C)c1 was tested. Which Potency did it give?
Its Potency is inconclusive [inhibitor, full curve, poor fit].

With CCOc1ccc(OCC)c(-c2c(=O)n(OCc3ccc(Cl)cc3)c3ccccc3[n+]2[O-])c1 as the compound, how does the Potency read?
The Potency was inconclusive [inhibitor, partial curve, poor fit].

For CCOP(=O)(OCC)C(Nc1ccccn1)c1ccccc1 (centres undefined), which Potency is on record?
The Potency was inconclusive [inhibitor, partial curve].

For CCOC(=O)C1CCN(S(=O)(=O)c2ccc(N3CCCCS3(=O)=O)cc2)CC1, which Potency is on record?
The Potency was “inactive”.

With CCn1c2ccccc2c2cc(NC(=O)CNCC3CCCO3)ccc21 (centres undefined) as the compound, how does the Potency read?
Its Potency is inconclusive [inhibitor, full curve, poor fit].

Which Potency does the source give for O=C(O)c1cccc(Nc2cc(Cl)c3nonc3c2[N+](=O)[O-])c1 here?
Its Potency is inconclusive [inhibitor, full curve, poor fit].

How did the Potency turn out when COc1cccc(CNc2ccc([N+](=O)[O-])c(NCC(=O)O)n2)c1 was run?
Its Potency is inconclusive [inhibitor, full curve, poor fit].

With COc1ccc(N2CCN(CC(=O)Nc3cc(C)cc(C)c3)CC2)cc1 as the compound, how does the Potency read?
The Potency was inconclusive [inhibitor, partial curve].

Which Potency does the source give for O=C1ON=C(c2cccc([N+](=O)[O-])c2)/C1=C/c1ccc(O)cc1 here?
Its Potency is inconclusive [inhibitor, single point].

With CCCC(C(=O)NCCC(C)C)N(Cc1ccccc1)C(=O)c1snc(C(N)=O)c1N (centres undefined) as the compound, how does the Potency read?
The Potency was inconclusive [inhibitor, partial curve, poor fit].

COc1ccc(N(CC(=O)Nc2ccccc2OC)S(=O)(=O)c2ccccc2)cc1Cl was tested. Which Potency did it give?
Its Potency is inconclusive [inhibitor, full curve].

How did the Potency turn out when CCCCn1c(=O)c(C(=O)NCc2ccccc2Cl)c(O)c2ccccc21 was run?
The Potency was inconclusive [inhibitor, full curve].

How did the Potency turn out when CC1=C(C(N)=O)C(c2cccc(C)c2)n2nc(-c3cccc(C)c3)nc2N1 (centres undefined) was run?
Its Potency is “inactive”.

For CCCCN(CC(=O)NC1CC1)S(=O)(=O)c1ccc(OCC)cc1, which Potency is on record?
Its Potency is inconclusive [inhibitor, full curve, poor fit].

CC(C)c1ccc(OCc2nc(-c3ccccn3)no2)c(Br)c1 was tested. Which Potency did it give?
The Potency was inconclusive [inhibitor, partial curve].

For COc1cc2c(cc1NC(=O)Nc1ccc(F)cc1)oc1ccccc12, which Potency is on record?
Its Potency is inconclusive [inhibitor, partial curve, poor fit].

Which Potency does the source give for CC(Oc1ccc2ccc(=O)oc2c1)C(=O)c1ccccc1 (centres undefined) here?
The Potency was inconclusive [inhibitor, full curve, poor fit].

CC(C)c1ccc2occ(CC(=O)Nc3ccccc3Cl)c2c1 was tested. Which Potency did it give?
Its Potency is “inactive”.

How did the Potency turn out when O=[N+]([O-])c1ccc2c(c1)S(=O)c1ccccc1-2 (centres undefined) was run?
The Potency was inconclusive [inhibitor, full curve, poor fit].

C=CCn1c(SCC(=O)c2[nH]c(C)c(C(=O)OC)c2C)nc2scc(-c3ccc(OC)c(OC)c3)c2c1=O was tested. Which Potency did it give?
Its Potency is inconclusive [inhibitor, single point].

CCOc1cccc(C(=O)Nc2ccccc2C(=O)N2CCN(C)CC2)c1 was tested. Which Potency did it give?
Its Potency is inconclusive [inhibitor, full curve, poor fit].

For COc1ccccc1-c1noc2ncnc(Nc3ccc4c(c3)OCO4)c12, which Potency is on record?
The Potency was inconclusive [inhibitor, full curve, poor fit].

Which Potency does the source give for Cc1c(CC(=O)N2CCC(C(N)=O)CC2)c(=O)oc2cc3c(cc12)CCC1(CCCCC1)O3 here?
Its Potency is inconclusive [inhibitor, full curve, poor fit].

COc1ccc(N2CCn3c2nc2c3c(=O)n(CCCc3ccccc3)c(=O)n2C)c(OC)c1 was tested. Which Potency did it give?
The Potency was inconclusive [inhibitor, full curve, poor fit].

For NC(=O)c1ccsc1NC(=O)COC(=O)c1ccccc1NCc1ccco1, which Potency is on record?
The Potency was “inactive”.

CSc1ccccc1NC(=S)NCc1ccc(Cl)cc1 was tested. Which Potency did it give?
The Potency was inconclusive [inhibitor, full curve, poor fit].

How did the Potency turn out when CCOc1ccc(CNC(=O)CCn2c(=O)oc3ccccc32)cc1OC was run?
Its Potency is inconclusive [inhibitor, single point].

N#CC(c1cccc(Cl)c1)c1ncc(C(F)(F)F)cc1Cl (centres undefined) was tested. Which Potency did it give?
The Potency was inconclusive [inhibitor, partial curve].

Which Potency does the source give for CCCn1c(SCC(=O)C(C)(C)C)nc2ccccc21 here?
Its Potency is inconclusive [inhibitor, full curve, poor fit].

With Cn1c2c(c(=O)n(C)c1=O)CN(Cc1ccc(F)cc1)CN2 as the compound, how does the Potency read?
The Potency was inconclusive [inhibitor, single point].

COCCNC(=O)Cn1cc2c(n1)CCCCC2 was tested. Which Potency did it give?
The Potency was inconclusive [inhibitor, full curve, poor fit].

COc1ccc(NC(=O)C2CCN(c3cnccn3)CC2)cc1Cl was tested. Which Potency did it give?
The Potency was inconclusive [inhibitor, full curve, poor fit].

How did the Potency turn out when CCn1cc(S(=O)(=O)c2cccc(C)c2)c(=O)c2cc(F)c(N3CCN(c4ccccc4)CC3)cc21 was run?
The Potency was “inactive”.

How did the Potency turn out when O=C(NNC(=S)NC(=O)c1ccccc1)c1cccc([N+](=O)[O-])c1 was run?
Its Potency is inconclusive [inhibitor, full curve, poor fit].

How did the Potency turn out when COc1ccccc1CN1CC(C(=O)NCc2cnn(C)c2)CCC1=O (centres undefined) was run?
The Potency was “inactive”.

With O=C(Nc1nnc(-c2ccc(Cl)cc2)o1)c1ccc(N2C(=O)CCC2=O)cc1 as the compound, how does the Potency read?
The Potency was inconclusive [inhibitor, partial curve].

How did the Potency turn out when O=C(COC(=O)C1CC2C=CC1C2)Nc1ccccc1F (centres undefined) was run?
Its Potency is inconclusive [inhibitor, full curve, poor fit].

For CCOc1ccc(C(=O)OCCN(C)C)cc1, which Potency is on record?
Its Potency is inconclusive [inhibitor, single point].

How did the Potency turn out when Cn1c(=O)c(=O)n(C)c2cc([N+](=O)[O-])c([N+](=O)[O-])cc21 was run?
The Potency was inconclusive [inhibitor, full curve, poor fit].

Which Potency does the source give for CCNC(=S)NC1CC2CCC(C1)N2Cc1ccccc1 (centres undefined) here?
Its Potency is “inactive”.

Cc1c(NC(=O)C2CCCCN2S(=O)(=O)c2ccc(Cl)cc2)c(=O)n(-c2ccccc2)n1C (centres undefined) was tested. Which Potency did it give?
The Potency was inconclusive [inhibitor, full curve, poor fit].
